This note sets out measurements from PubChem BioAssay AID488969 (Vanderbilt High Throughput Screening Facility, 2010).

The structures appear in SMILES notation. Over roughly 110,000 compounds, “z-score” has its median near -0.1; the highest 2% begin near 2. The list shows a part of the results.

For this assay, the target named is Metabotropic glutamate receptor 8 (Rattus norvegicus) (UniProt P70579). Briefly: rat mGluR8 modulators via GIRK flux, primary screen, cell-based, thallium flux, HTS (AID 488969). The settings on record: HEK293 rat mGluR8, GIRK (G protein-gated inwardly rectifying potassium channel) thallium flux, FluoZin2; at 10 µM; stronger effect = higher value; submaximal glutamate (EC20) added with thallium.
Chain of UniProt P70579 (P70579 whole entry, looked up): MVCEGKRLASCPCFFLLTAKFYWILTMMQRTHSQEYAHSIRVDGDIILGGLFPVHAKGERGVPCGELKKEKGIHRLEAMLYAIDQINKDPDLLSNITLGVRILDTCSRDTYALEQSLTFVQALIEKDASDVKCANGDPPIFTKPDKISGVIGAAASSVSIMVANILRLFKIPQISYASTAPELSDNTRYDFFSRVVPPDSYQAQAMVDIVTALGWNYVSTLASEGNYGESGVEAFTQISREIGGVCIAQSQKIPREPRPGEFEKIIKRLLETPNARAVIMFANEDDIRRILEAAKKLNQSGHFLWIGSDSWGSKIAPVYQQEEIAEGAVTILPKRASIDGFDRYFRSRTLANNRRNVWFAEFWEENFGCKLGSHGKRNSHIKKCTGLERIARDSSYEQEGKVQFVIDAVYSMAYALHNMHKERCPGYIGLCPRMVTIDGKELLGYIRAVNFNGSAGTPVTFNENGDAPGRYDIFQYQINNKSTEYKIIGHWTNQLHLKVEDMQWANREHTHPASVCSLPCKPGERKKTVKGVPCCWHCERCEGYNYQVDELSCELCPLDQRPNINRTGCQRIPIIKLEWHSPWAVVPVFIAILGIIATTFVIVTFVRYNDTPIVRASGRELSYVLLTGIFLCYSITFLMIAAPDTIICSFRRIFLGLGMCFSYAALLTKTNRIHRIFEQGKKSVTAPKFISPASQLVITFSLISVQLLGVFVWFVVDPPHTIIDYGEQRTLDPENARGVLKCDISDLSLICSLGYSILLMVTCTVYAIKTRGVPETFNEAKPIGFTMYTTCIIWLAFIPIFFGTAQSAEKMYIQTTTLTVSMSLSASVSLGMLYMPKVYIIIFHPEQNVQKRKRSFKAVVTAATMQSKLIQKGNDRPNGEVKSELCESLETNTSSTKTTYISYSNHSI
`CC1=C(/C=C/C(=O)O)C(C)(C)CCC1` showed a z-score of -0.0012. The molecule `CCOc1ccccc1N1CCN(S(=O)(=O)c2ccc3c4c(cccc24)C(=O)N3)CC1` came in with a z-score of 0.499. Turning to `O=C(NCc1ccccc1)c1cnc(-c2ccccn2)nc1C(F)(F)F`, the z-score was -0.365.

As to `Cc1ccsc1/C=N/N=C1\C(=O)Nc2ccccc21`, the z-score is -0.398. The molecule `CCC(=O)N(Cc1cccs1)C1CCOC(C)(C)C1` (stereo unspecified) gave a z-score of 0.214.

Consider `Cc1ccn2c(-c3csc(NCc4ccccc4)n3)c(C)nc2c1`, for which the z-score is -0.461. Next, `COc1ccc(NC(=O)C2CCCN(S(=O)(=O)c3cccnc3)C2)c(OC)c1` (stereo unspecified): 0.47; `Cc1nc2ccc(NC(=O)c3nn(CC(C)C)c(=O)c4ccccc34)cc2s1`: -1.21. Next, `CCCCOC(=O)C1CCCC(C)N1` (stereo unspecified): -0.0495; `O=c1[nH]cnc2c1C1(CCCC1)Cc1ccccc1-2`: -0.476; `CCOc1ccccc1CNC(=O)c1cc2oc3ccccc3c2n1CC`: 0.192.

In turn, `CC1(C)CC(=O)C=C(NCCCN2CCCC2=O)C1` displayed a z-score of 0.368. For `COc1ccc(C(=O)Oc2ccc(F)cc2C(=O)/C=C/c2ccc(OC)c(OC)c2)cc1` the value was -0.437. For `N#Cc1c(NC(=O)CSc2ncccn2)oc(-c2ccccc2)c1-c1ccccc1` the value was -2.01; for `Cc1cc(C)nc(Nc2n[nH]c(-c3ccc(N)cc3)n2)n1`, -0.401.

In turn, `CCC(C)C(Nc1ccc(C(=O)OC)cc1[N+](=O)[O-])C(=O)OC` (stereo unspecified) returned a z-score of 0.499.

The molecule `Cc1ccc(S(=O)(=O)Oc2ccccc2N2C(=O)C3CC=CCC3C2=O)cc1` (stereo unspecified) showed a z-score of -0.0558.

On to `COc1cccc(C(c2sc3ncnn3c2O)N2CCN(C(=O)c3ccco3)CC2)c1` (stereo unspecified), for which the z-score is -0.372. Next, `Cc1ccc(NC(=O)CSc2n[nH]c(C)c2[N+](=O)[O-])cc1`: -0.0123; `COc1ccc(OC)c(C(=O)c2nc3c(n2O)CCCCC3)c1`: -0.156; `CCNC(=S)N/N=C/c1ccc(OCC(=O)Nc2ccc(C)cc2)cc1`: -0.105. For `CCOc1ccc(N2CC(C(=O)Nc3ccccc3F)CC2=O)cc1` (stereo unspecified) the value was -0.15; for `Cc1ccc([N+](=O)[O-])cc1N/C=C/C(=O)c1ccco1`, -0.039; for `COCCNC(=O)c1cccc(C)c1[N+](=O)[O-]`, -0.118.

Turning to `COc1ccc(/C(N)=N/OC(=O)CSc2ccccc2)cc1OC`, the z-score was -0.636. The molecule `Cc1ccccc1NC(=O)c1sc(Cl)nc1-c1ccccc1` came in with a z-score of -0.159. For `O=C(Nc1cccn2ncnc12)c1ccc(Cl)cc1Cl` the value was -0.224; for `O=C(/C=C/c1ccccc1)NCCSCc1ccc(Cl)cc1`, -0.0486; for `CCCC(=O)N(c1ccc2oc(=O)sc2c1)S(=O)(=O)c1ccccc1`, 0.341.

`Cc1cccc(C2CC(c3ccccc3)Nc3nc(N)nn32)c1` (stereo unspecified): the z-score was 0.229. Next, `O=C(c1ccco1)N1CCN(CC2CC3C=CC2C3)CC1` (stereo unspecified): 0.296; `O=C(CCC(=O)N1CCN(S(=O)(=O)c2ccc(Cl)cc2)CC1)NCc1ccccc1`: -0.172; `CC(Sc1nnc(-c2cccs2)n1Cc1ccccc1)C(=O)NCc1ccc2c(c1)OCO2` (stereo unspecified): 0.0555. For `COc1cc(C=O)ccc1OCCOCCOc1ccc(Cl)cc1` the value was -0.376. For `CC(C)n1c(NCc2cc(Cl)ccc2O)nc2ccccc21`, the z-score is -0.0481. For `N#Cc1nc(COc2ccccc2F)oc1NCc1ccc(F)cc1` the value was -0.0335; for `CN(C)CCCN(C(=O)c1sc2ccccc2c1Cl)c1nc2c(F)cccc2s1`, -0.149; for `C=CCNc1nc(Cl)nc(Nc2ccc(OC)cc2)n1`, -0.179. Regarding `N#CC(C#N)=Cc1cc2ccccc2nc1N1CCCCC1`, the z-score is -0.58. For the molecule `CCc1cc[n+](C2=C([O-])c3ccccc3C(=O)/C2=N\S(=O)(=O)c2cccs2)cc1`, the z-score was -0.161.

`O=C1CCCC2=C1C1(CCCCC1)N=C(Nc1nc3ccccc3o1)N2` had a z-score of -0.209.

`O=C(CSc1nc(O)cc(=O)[nH]1)C1CC1` came in with a z-score of -0.0834. With `CC(=O)c1ccc(OCCCC(=O)NC2=NCCS2)cc1`, the z-score is -0.155. Turning to `CCc1cc2c(=O)c(-c3nc4ccccc4n3C)c(COCC(=O)O)oc2cc1O`, the z-score was -0.454.

`O=c1[nH]n(-c2cccc(Cl)c2)c2ncccc12` displayed a z-score of -0.272.

`Cc1ccc(N(CC(=O)NCc2ccncc2)S(C)(=O)=O)cc1Cl` came in with a z-score of 1.2. Next, `Nc1nccnc1C(=O)OCC(=O)Nc1cccc(S(=O)(=O)N2CCCCC2)c1`: -0.0359; `Cc1ccccc1Nc1nc2ccccc2s1`: 0.103; `Nc1cc(-c2ccc(Br)cc2)nn1S(=O)(=O)c1cccc2nsnc12`: 0.00233.

`COc1cc(NC(=O)C2CC(c3cccc(OC)c3OC)=NO2)cc(OC)c1OC` (stereo unspecified) yielded a z-score of 0.254. As for `O=C(COc1nnc2ccccn12)N1CCN(S(=O)(=O)c2ccccc2)CC1`, the z-score came out at 0.105.

Turning to `CCOC(=O)Cc1c(C)nc2c(C#N)c(C)nn2c1C`, the z-score worked out at 0.174. Next, `CC(NC(=O)CC(O)(C(F)(F)F)C(F)(F)F)c1ccccc1` (stereo unspecified): -0.166. For `O=C(O)CSc1nc2ccc(Cl)cc2[nH]1` the value was -0.0827; for `CCn1nnc(-c2ccccc2NC(=O)c2cnccn2)n1`, -0.166.

Take `CCn1nc([N+](=O)[O-])c(C(C#N)c2nc3ccccc3n2C)c(Cl)c1=O` (stereo unspecified): the z-score was -0.682. Next, `COC(=O)c1sc2nc(SCc3ccccc3C#N)n(N)c(=O)c2c1C`: 0.247; `CC(C)CSc1nsc(N)n1`: -0.123; `Cc1ccccc1NC(=O)NCc1ccco1`: 0.207.

Molecule `COc1cccc(/C=N/Nc2nnc(C)n2N)c1OCc1ccccc1Cl` came in with a z-score of -0.451. For `CC(CC(=O)Nc1ccccc1C(F)(F)F)c1ccccc1` (stereo unspecified) the value was -0.0979; for `CC(CC#CCN1CCOCC1)OCCC#N` (stereo unspecified), 0.79; for `O=C(Cn1ccc2ccccc2c1=O)NCCC(=O)NC1CCN(Cc2ccccc2)CC1`, 0.439. Next, `N=c1c2c3c(sc2ncn1CCCO)CCCC3`: -0.123; `Cn1ccnc1SCC(=O)c1cc2ccccc2o1`: 0.608; `Cc1ccc2[nH]c(=O)c(CN(Cc3cccs3)C(=S)NCC3CCCO3)cc2c1` (stereo unspecified): -0.21. For `COc1nc(-c2ccccc2)ccc1-c1noc(COc2ccccc2)n1` the value was 0.145. `Cc1cc(N)n2ncc(-c3ccc(F)cc3)c2n1` displayed a z-score of 0.097. Next, `O=C1N(c2ccccc2)C(c2ccc(Cl)cc2)N2CCCN12` (stereo unspecified): 0.277; `O=C1CCCc2c1cc(-c1ccccc1)n2-c1ccccc1`: -0.33; `CCC(Oc1ccc2c(=O)c(-c3ccccc3OC)coc2c1)C(=O)OCc1ccccc1` (stereo unspecified): 0.245.

The molecule `CCOC(=O)C(C)Sc1ncnc2c1nnn2-c1ccc(F)cc1` (stereo unspecified) returned a z-score of -0.257. In turn, `COCc1cc(=O)n2[nH]c(-c3ccc(C)cc3)cc2n1` registered a z-score of -0.344. As for `N#Cc1c(NC(=O)c2cccnc2)sc2c1CCC2`, the z-score turned out to be 0.204. As for `O=S(=O)(NCC1CCCO1)c1ccc(S(=O)(=O)N(Cc2ccc(F)cc2)Cc2ccccn2)cc1` (stereo unspecified), the z-score is -0.33. Molecule `Cc1nnc(SCC(=O)NCc2ccccc2)[nH]c1=O` gave a z-score of 0.0528. For `CCCCC(=O)Nc1cccc(NC(=S)NC(C)=O)c1` the value was -0.248. Consider `COc1cccc(NC(=O)CNC(=O)c2cccs2)c1`, for which the z-score stood at 0.171.

With `CCc1nnc(NC(=O)CSc2nc(-c3ccccc3)cc(-c3ccc(OC)cc3)c2C#N)s1`, the z-score is -0.249. `CN1CCc2c(sc3c2c(=O)n(-c2ccccc2)c2n[nH]c(=S)n32)C1` returned a z-score of -0.215. As to `CCOC(=O)C1=C(C)NC(=S)N(C(C)=O)C1c1ccccc1` (stereo unspecified), the z-score was -2.05. Next, `Cc1cc(=O)oc2cc(OCc3ccc(S(=O)(=O)N4CCOCC4)cc3)ccc12`: -0.364; `O=C1N(Cc2ccc3c(c2)OCO3)c2ccccc2C1(O)c1c[nH]c2ccccc12` (stereo unspecified): -0.749. `COc1ccccc1N1CC(C(=O)Nc2cccc(C(=O)O)c2)CC1=O` (stereo unspecified) returned a z-score of 0.601.

Regarding `COCCOC(=O)C1=C(N)OC2=C(C(=O)CC(C)(C)C2)C1c1cccnc1` (stereo unspecified), the z-score turned out to be 0.411. `COc1ccc(F)cc1S(=O)(=O)N1CCCC(C)C1` (stereo unspecified) came in with a z-score of -0.129. For `O=C(O)c1cn(-c2ccccc2)nc1-c1ccc(Cl)cc1` the value was -0.381; for `CCN1C(=O)/C(=C/c2cccs2)SC1=Nc1ccc(OC)cc1`, 0.484. For `O=C(COc1cccc(OC(F)F)c1)Nc1ccc(SC(F)F)cc1` the value was -1.22. For `O=C1C(=O)N(CCO)C(c2cccc(F)c2)/C1=C(\O)c1ccc(Cl)cc1` (stereo unspecified) the value was -0.349; for `CCCCn1c(-c2cccs2)nc2nc3ccccc3nc21`, -1.11; for `CCOc1ccccc1NC(=O)NS(=O)(=O)c1ccc(C)cc1`, -0.284. `O=C(c1ccccn1)N1N=C2/C(=C/c3ccccc3)CCCC2C1c1ccccc1` (stereo unspecified): the z-score stood at 0.405.

Regarding `Cc1cccc(NC2=CC(=O)OC(C)C2)c1` (stereo unspecified), the z-score was -0.135. For `O=C(CCN1C(=O)c2ccccc2C1=O)Nc1ccccn1` the value was -0.805; for `COc1ccccc1C(=O)Nc1ccc(NC(=O)c2ccco2)c(C)c1`, 0.676; for `Cc1nc(NC(=O)/C=C/c2ccccc2)n[nH]1`, -0.402. Molecule `CCOC(=O)c1sc(NC(=O)CSc2ncn[nH]2)c(C#N)c1C` showed a z-score of -0.538. As for `O=C(CN1CCCCC1)Nc1ccc(S(=O)(=O)N2CCCCCC2)cc1`, the z-score is 0.595. For `COc1cc(OC)c(OC)cc1/C=N/Nc1ncnc2c1[nH]c1ccccc12` the value was -0.16; for `Cc1ccc(-n2c(SCC(N)=O)nnc2-c2cccnc2)c(C)c1`, -1.28. `CCOCCCNC(=O)C(NC(=O)CNC(C)=O)c1ccc(C)cc1` (stereo unspecified): the z-score turned out to be 0.0565.

In turn, `O=C(CSc1nncc2ccccc12)N1CCOCC1` gave a z-score of 0.132. On to `CN(C)c1ccc(-c2noc(-c3ccccc3O)n2)cc1`, for which the z-score was -0.541.

`O=C1C2C3C=CC(C3)C2C(=O)N1c1ccccc1OS(=O)(=O)c1ccccc1` (stereo unspecified) returned a z-score of -0.0815.

Molecule `Cc1cccc(C)c1NC(=O)CN(C)CC(=O)Nc1ccccc1Br` came in with a z-score of 0.0169.

Regarding `COC(=O)C1=C(C)N(Cc2ccc(C)cc2)C(=O)/C1=C\c1cc(OC)c(OC)c(OC)c1`, the z-score was -0.349. For `O=C(Nn1c(-c2ccccc2)nc2ccccc2c1=O)c1ccco1` the value was 0.0377.

In the case of `C=CCn1c(SCC(C)=O)nnc1-c1cc(-c2ccccc2)sc1N`, the z-score is -0.526. Consider `CC1CCN(c2ccc(C(=O)NCc3ccco3)cc2[N+](=O)[O-])CC1`, for which the z-score is -0.684. Regarding `CCNS(=O)(=O)c1cc(OC)c(Cl)cc1OC`, the z-score was -0.117. For `O=C(Nc1nnc(COc2ccccc2)s1)c1ccco1` the value was -0.0146; for `NC(N)=N/N=C/c1ccc(OCc2ccccc2)cc1`, 0.177; for `COc1ccc(C(=O)OCCNC(=O)c2ccncc2)cc1OC`, 0.575. For `CCc1ccc2c(c1)C(c1cccs1)=NNC(c1cccnc1)=N2` the value was -1.48. Consider `CC1=C(C)CC(C(=O)c2ccccc2)C(C(=O)O)C1` (stereo unspecified), for which the z-score is -0.142.
